# Whole data set: some 110,000 compounds, median “z-score” near -0.1, cut for the highest 2% near 2. Some of the results follow. Active and inactive are the calls of the source.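 How the source made its calls: active means z-score in the third read window above 3 or below -3; inactive means the rest.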
# Target: Metabotropic glutamate receptor 8 (Rattus norvegicus) (UniProt P70579)
# Assay: mGluR8 Gi/Go-coupled signaling modulation – cell-based, rat, thallium flux, HTS, primary screen (AID 488969)
# Details: HEK293 rat mGluR8, GIRK (G protein-gated inwardly rectifying potassium channel) thallium flux, FluoZin2; at 10 µM; stronger effect = higher value; submaximal glutamate (EC20) added with thallium
# UniProt P70579, sequence (P70579 whole entry, looked up): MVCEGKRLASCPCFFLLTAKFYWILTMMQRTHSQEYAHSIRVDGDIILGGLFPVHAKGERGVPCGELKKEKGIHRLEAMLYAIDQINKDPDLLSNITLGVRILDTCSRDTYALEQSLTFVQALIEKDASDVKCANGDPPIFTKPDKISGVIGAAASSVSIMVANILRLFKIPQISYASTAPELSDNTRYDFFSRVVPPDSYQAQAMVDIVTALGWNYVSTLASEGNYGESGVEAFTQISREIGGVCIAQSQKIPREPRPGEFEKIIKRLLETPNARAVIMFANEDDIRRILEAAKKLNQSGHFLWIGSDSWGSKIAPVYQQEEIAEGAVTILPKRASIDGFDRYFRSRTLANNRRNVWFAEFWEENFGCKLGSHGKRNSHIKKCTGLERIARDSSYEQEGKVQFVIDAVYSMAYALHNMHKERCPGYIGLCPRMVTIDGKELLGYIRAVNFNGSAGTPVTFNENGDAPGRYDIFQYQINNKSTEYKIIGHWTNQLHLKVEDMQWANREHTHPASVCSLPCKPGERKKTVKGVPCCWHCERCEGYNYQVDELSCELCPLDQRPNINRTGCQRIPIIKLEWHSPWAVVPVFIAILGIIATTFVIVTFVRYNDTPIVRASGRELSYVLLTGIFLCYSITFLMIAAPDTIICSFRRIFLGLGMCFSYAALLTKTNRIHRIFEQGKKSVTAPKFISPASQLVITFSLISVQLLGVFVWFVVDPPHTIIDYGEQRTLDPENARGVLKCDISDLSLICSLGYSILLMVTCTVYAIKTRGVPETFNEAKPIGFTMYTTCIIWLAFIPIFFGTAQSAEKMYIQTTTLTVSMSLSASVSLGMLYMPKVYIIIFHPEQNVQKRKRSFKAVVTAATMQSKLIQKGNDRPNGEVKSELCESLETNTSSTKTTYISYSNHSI
row,Compound,z-score
1,O=C(COC(=O)c1cccc(NS(=O)(=O)/C=C/c2ccccc2)c1)Nc1ccccc1OC(F)F,-0.425
2,CCNC(=O)COc1ccc(C=O)cc1OC,1.02
3,CN(Cc1ccccc1)c1ccc(C(=O)O)cc1[N+](=O)[O-],-0.39
4,Cc1ccc(NC(=O)c2cnccn2)cc1S(=O)(=O)N(C)C,-0.077
5,COc1ccc(C2CC(=O)C=C(NNS(=O)(=O)c3ccc(C)cc3)C2)cc1 (centres undefined),-0.0728
6,Cc1ccc(-c2nc(CSCC(=O)N3CCCC3)c(C)o2)cc1,-0.311
7,Cc1ccc(OCCCC(=O)N2CCOCC2)c(C)c1,-0.152
8,N=C1/C(=C/c2cccn2-c2ccc([N+](=O)[O-])cc2)C(=O)N=C2SC=CN12,-0.214
9,CCOC(=O)C1=C(N)OC2=C(C(=O)CCC2)C1c1ccco1 (centres undefined),-0.115
10,O=C(NCc1ccccn1)c1ccc(Cn2cc(Br)cn2)o1,-0.188
11,COC(=O)c1c(NC(=O)COC(=O)CNC(=O)c2ccco2)sc(C)c1C,-0.123
12,CC(=Nc1cccc(O)c1)c1sc2ccccc2c1O,-0.237
13,COCc1cc(C)nc(OCC(=O)N/N=C/c2ccc(-c3cccc([N+](=O)[O-])c3)o2)c1C#N,0.0169
14,Cc1nn(-c2ccccc2)c(Cl)c1C(=O)Nc1nnc(C2CCCCC2)s1,-0.261
15,O=C(CN1C(=O)/C(=C/c2ccccc2F)Oc2ccccc21)N1CCN(c2ccccn2)CC1,active: 6.44
16,CCCn1nc(C(=O)OCC(=O)c2ccc3c(c2)NC(=O)CO3)c2ccccc2c1=O,-1.71
17,CCOC(=O)CSc1ncc(-c2cccc(Cl)c2)cn1,-0.245
18,COc1ccc(Nc2cc(=O)oc3ccccc23)cc1,-0.0667
19,Nn1c(Cc2cccc3ccccc23)nnc1SCc1c(Cl)cccc1Cl,-0.392
20,Cc1cc(C(=O)N/N=C/c2cc(Br)ccc2OC(=O)c2ccccc2)n[nH]1,-0.0383
21,COc1ccc(OC)c(C(=O)c2ccc(C(=O)c3cc(OC)ccc3OC)cc2)c1,-0.0682
22,Cc1nnc(N/N=C/c2cccc(OCc3ccc(Cl)c(Cl)c3)c2)n1N,-0.0567

row,Compound,z-score
1,CCCc1nc2ccccc2c(C(=O)OCC(=O)N2CCc3ccccc32)c1CC,-0.271
2,COc1ccc(/C=N/n2c(-c3cccs3)n[nH]c2=S)cc1,2.46
3,CCOC(=O)c1sc2nccc(N(C)C)c2c1N=CN(C)C,0.08
4,CC(NC(=O)COC(=O)/C=C/c1ccc([N+](=O)[O-])cc1)c1ccccc1 (centres undefined),-0.366
5,CN1CC(c2ccccc2)C2(SC(=S)N(Cc3ccco3)C2=O)C12C(=O)Nc1ccccc12 (centres undefined),0.221
6,COCCNC(=S)N1CCc2cc(OC)c(OC)cc2C1COc1cc(C)cc(C)c1 (centres undefined),-0.0886
7,N#CC1=C(N)Oc2c(O)cc3ccccc3c2C1c1ccsc1 (centres undefined),-0.153
8,Cc1sc2nc3ccc(NCc4ccco4)nn3c(=O)c2c1C,-0.285
9,O=C(CCN1C(=O)COc2ccccc21)N1CCCCC1,-0.358
10,O=C(NCC1CCCO1)c1ccc(COCC(F)(F)C(F)F)cc1 (centres undefined),0.432
11,COCC(=O)Nc1ccc(C)c(Cl)c1,-2.21
12,CC1(C)C2CCC1(C)C(OC(=O)CSc1nc(N)cc(=O)[nH]1)C2 (centres undefined),-0.246
13,CCn1c2ccccc2c2cc(C3C(C#N)=C(N)Oc4n[nH]c(COC)c43)ccc21 (centres undefined),0.229
14,N#Cc1c2n(c(=S)n(-c3ccccn3)c1=O)CCCCC2,-0.927
15,CCN(CC)C(=O)Oc1ccc2ccccc2c1Cl,0.21
16,COC(=O)c1cc(OC)c(OC)cc1NC(=O)CSc1ccccc1,-0.473
17,Clc1ccccc1OCCCCn1ccnc1,0.387
18,CC(=O)c1sc(N/N=C\c2cccc(Br)c2)nc1C,-0.166
19,COCCn1c(-c2ccccc2)nc2oc3ccccc3c(=O)c2c1=O,-0.0618
20,COc1ccc(Oc2nc3c(c(=O)n(C)c(=O)n3C)n2Cc2cccc(OC)c2)cc1,-0.278
21,Cc1ccc(Cn2nnc3c(=O)n(CC(=O)c4ccccc4)cnc32)cc1,-0.376
22,O=C(NC1(C(F)(F)F)C(=O)Nc2c1c(=O)[nH]c(=O)n2Cc1ccccc1)c1ccc(Cl)cc1Cl (centres undefined),-0.114

row,Compound,z-score
1,CC(C(=O)O)c1n[nH]c(=O)c2ccccc12 (centres undefined),-0.0879
2,COCCN(C(=O)Cc1cccs1)C(C(=O)NCc1ccc(OC)cc1)c1ccccc1 (centres undefined),active: 3.95
3,CCn1c(=O)n(CC)c2cc(S(=O)(=O)N3CCCCC3)c(C)cc21,-0.0951
4,CC1Cc2ccccc2N1C(=O)CSc1nc2ccccc2s1 (centres undefined),-0.167
5,Cc1ccc2c(c1)[nH]c1c(N3CCN(Cc4ccccc4)CC3)ncnc12,-0.627
6,CCCCn1c(-c2nonc2N)nc2ccccc21,-0.145
7,COc1ccccc1/C=C/C(=O)NC(=S)N(C)C1CCCCC1,active: 4.46
8,Cc1ccccc1CSCCNC(=O)CN(c1ccc2c(c1)OCO2)S(C)(=O)=O,-0.0056
9,Cc1ccc(C(=O)CSc2nnc(-c3ccccc3N)n2C)cc1,-0.079
10,CN1CCc2c(sc(/N=C/c3cccs3)c2C(N)=O)C1,0.21
11,COc1cc(/C=N/NC(=O)c2ccc(O)cc2)ccc1Oc1ccc([N+](=O)[O-])cn1,0.226
12,Cc1ccccc1NC1=NC(=S)N(c2ccccc2)C12CCOC(C)(C)C2 (centres undefined),active: 12.6
13,Cc1nc2ccc(NC(=O)c3cccc(C(F)(F)F)c3)cc2o1,-0.499
14,C/C(=N\N=C\c1ccc(N(C)C)cc1)c1cccc([N+](=O)[O-])c1,-0.145
15,CC(=O)NC1C(=O)N(CCc2ccccc2)c2ccc(Br)cc21 (centres undefined),0.217
16,CC(=NCCN1CCN(C(=S)Nc2ccccc2)CC1)C1=C(O)CC(C)(C)CC1=O,-0.271
17,CCOC(=O)c1c(NC(=O)CSc2nnc(-c3ccccc3)o2)sc(C(C)=O)c1C,-0.642
18,CC(C)OCCCNC(=O)c1ccc(NC(=O)C2CCCO2)cc1 (centres undefined),0.594
19,Cc1cc2ncn(C3CC(=O)N(C)C3=O)c2cc1C (centres undefined),-0.121
20,COc1cc(C(c2sc3ncnn3c2O)N2CCN(c3ccccc3F)CC2)cc(OC)c1OC (centres undefined),0.0119
21,C=CCN=C1SC(CC)C(=O)N1S(=O)(=O)c1ccc(C)cc1 (centres undefined),0.327
22,COc1ccc(OC)c(/C=C/C(=O)OCC(=O)Nc2ccc3c(c2)OCCO3)c1,0.113

row,Compound,z-score
1,COc1c(Cl)cc(Cl)cc1C(=O)n1nc(C)cc1C,-0.241
2,Fc1cccc(-n2ncc(-c3nnnn3-c3ccccc3)c2C(F)(F)F)c1,-0.403
3,CN(c1cccc(NC(=O)CN(c2ccc(C34CC5CC(CC(C5)C3)C4)cc2)S(C)(=O)=O)c1)S(C)(=O)=O,0.173
4,O=C(O)C(Cc1ccccc1)N1C(=O)/C(=C/c2cccc3ccccc23)SC1=S (centres undefined),-1.28
5,O=C1CSC2(CCCCC2)N1CCO,-0.0975
6,CC1CCN(c2c(NCc3ccc(C(=O)N4CCc5ccccc54)cc3)c(=O)c2=O)CC1,0.0125
7,Cc1c(Br)c([N+](=O)[O-])nn1C(C)C(=O)Nc1c(C)n(C)n(-c2ccccc2)c1=O (centres undefined),-0.137
8,CC(=O)c1ccc(OCCCC(=O)OCc2nnc(-c3ccc(Cl)cc3)o2)cc1,0.677
9,CCC1(C)N(O)C(C)(C)C(c2ccc(OC)cc2)=[N+]1[O-] (centres undefined),-0.217
10,Cc1ccc(-n2c(O)c(/C=N/n3cnnc3)c3ccccc3c2=O)cc1,-0.447
11,Cc1ccc(SCC(=O)Nc2ccc3c(c2)OCCO3)cc1,-0.155
12,CCn1c(SCC(=O)Nc2sc3c(c2C#N)CCC(C(C)(C)C)C3)nnc1-c1ccco1 (centres undefined),-0.0681
13,CCCCC(=O)Nc1cc(OCC)c(NC(=O)c2ccccc2[N+](=O)[O-])cc1OCC,-0.424
14,COc1ccccc1NC(=O)c1oc2ccccc2c1NC(=O)c1cc(OC)c(OC)c(OC)c1,-0.0644
15,O=C(COC(=O)C1(c2ccccc2F)CCCC1)N1CCN(C(=O)c2ccco2)CC1,-0.0374
16,C/C(=C\C(=O)Nc1nccs1)c1ccccc1,-0.25
17,COC(=O)c1sccc1NC(=O)c1ccc(C)s1,-0.334
18,COC(=O)c1ccc2nc(C(F)(F)F)[nH]c2c1,0.00654
19,CC(C)CC(=O)N1CCN(C(=O)c2cccc(F)c2)CC1,-0.332
20,C/C(Cc1ccccc1)=N\NC(=O)CCCCCC(=O)N/N=C(\C)Cc1ccccc1,-0.0163
21,COc1ccc(Oc2c(C)oc3cc(OC(=O)N4CCOCC4)ccc3c2=O)cc1,0.127
22,CN1CCN(C(=S)NC(=O)/C=C/c2ccccc2)CC1,0.401

row,Compound,z-score
1,CCN(CC)C(=O)n1cnc(-c2ccccc2)c1-c1ccccc1,-0.325
2,CCn1c(NC(=O)c2cccc(Cn3cc(Cl)cn3)c2)nc2ccccc21,0.18
3,O=C(COC(=O)Cc1ccc(S(=O)(=O)N2CCOCC2)s1)NCc1ccc(Cl)cc1,-0.331
4,Cc1ccc(OCCOc2ccc(Cl)cc2Cl)c([N+](=O)[O-])n1,-0.167
5,Cc1ccc(OCC(=O)N2CCCCC2)c(Br)c1,0.0809
6,CC1(C)CC(=O)c2cnc(N3CCc4ccccc4C3)nc2C1,0.63
7,Cn1c(=O)n(C)c2cc(NS(C)(=O)=O)ccc21,0.0288
8,CCCn1c(N)c(C(=S)NC(=O)C2CC2)c(=O)n(C)c1=O,0.941
9,O=C1C(=O)N(CCN2CCCCC2)c2ccccc21,0.0049
10,CCC(=O)Nc1ccc2c(c1)ncn2-c1ccccc1,0.261
11,c1csc(CNCCN2CCOCC2)c1,-0.0197
12,O=C(Nc1nncs1)c1c(F)c(F)c(F)c(F)c1F,0.819
13,Cc1nnc2sc(SCc3ccc(Cl)cc3)nn2c1=O,-0.0253
14,CCN(CC)CCNC(=O)C12CC3CC(C)(CC(C)(C3)C1)C2,0.873
15,COc1ccc(-n2c(C)n[nH]c2=O)cc1,1.02
16,O=S(=O)(c1ccc2c(c1)OCCO2)N1CCC(n2nnc3cc(F)ccc32)CC1,-0.35
17,O=C(c1cccc([N+](=O)[O-])c1)N1CCN(c2cccc(Cl)c2)CC1,-0.124
18,COc1ccc2nc(NC(=O)CCn3cccc3)sc2c1,-0.0546
19,O=C(Nc1cccc(S(=O)(=O)N2CCCCC2)c1)c1c2c(nc3ccccc13)CCN(Cc1ccccc1)C2,0.0436
20,CCCCS(=O)CC(CS(=O)CCCC)OC(=O)c1ccccc1 (centres undefined),0.895
21,O=C(O)c1c(-c2ccccc2)c2oc3ccccc3c2[nH]c1=O,-0.0833

# From PubChem BioAssay AID488969 (Vanderbilt High Throughput Screening Facility, 2010)
